Results reported in publication PMC11995724, “Antibiotic target discovery by integrated phenotypic and activity-based profiling of electrophilic fragments” (Cell chemical biology, 2025).
In all, about 3,200 compounds went through this assay and about 75 (2%) showed an effect of 50% or more. Some of the results follow.

What follows are molecules tested on T1, S. aureus MSSA476. Conditions: relative growth, OD600, TSB; 25 µM; inhibitor.
T1 construct: MSSA476
Design: species or system S. aureus MSSA476 (TSB) or V. cholerae SAD30 (LB); 384-well bacterial growth screen at 25 uM, OD600 relative to DMSO control

| Compound | % of control remaining [%] |
| --- | --- |
| C=CC(=O)Nc1ccc(C(=O)N2CCCCC2c2noc(C)n2)cc1 (stereo not drawn) [2-C20, N-{4-[2-(5-methyl-1,2,4-oxadiazol-3-yl)piperidine-1-carbonyl]phenyl}prop-2-enamide] | 99.913 |
| C=CC(=O)NCC1CS(=O)(=O)c2ccccc21 (stereo not drawn) [3-J15, N-[(1,1-dioxo-2,3-dihydro-1lambda6-benzothiophen-3-yl)methyl]prop-2-enamide] | 119.808 |
| CCN(c1ccc(C(=O)CCl)cc1)S(C)(=O)=O [10-F04, N-[4-(2-chloroacetyl)phenyl]-N-ethylmethanesulfonamide] | 2.1875 |
| CC(C)OC(=O)c1ccc(NC(=O)C(C)Cl)cc1 (stereo not drawn) [4-K08, propan-2-yl 4-(2-chloropropanamido)benzoate] | 110.148 |
| Cc1ccc(C)c(NC(=O)C(C#N)=Cc2cccn2C)c1 [8-M07, 2-cyano-N-(2,5-dimethylphenyl)-3-(1-methyl-1H-pyrrol-2-yl)prop-2-enamide] | 114.855 |
| CC(=O)Nc1ccsc1C=C(C#N)C(=O)Nc1ccc(F)cc1 [9-F14, 2-cyano-3-(3-acetamidothiophen-2-yl)-N-(4-fluorophenyl)prop-2-enamide] | 122.247 |
| Cc1cc(C(=O)O)ccc1N1C(=O)C=CC1=O [10-G22, 4-(2,5-dioxo-2,5-dihydro-1H-pyrrol-1-yl)-3-methylbenzoic acid] | 125.625 |
| C=CC(=O)NCC(F)(F)c1cccnc1 [1-O12, N-[2,2-difluoro-2-(pyridin-3-yl)ethyl]prop-2-enamide] | 116.747 |
| Cc1cc(C(=O)CCl)c(C)n1-c1cccc(Cl)c1 [10-N18, 2-chloro-1-[1-(3-chlorophenyl)-2,5-dimethyl-1H-pyrrol-3-yl]ethan-1-one] | 100.313 |
| C=CC(=O)N(C)Cc1cn(C2CC2)cn1 [2-J13, N-[(1-cyclopropyl-1H-imidazol-4-yl)methyl]-N-methylprop-2-enamide] | 118.712 |
| C=CC(=O)N[C@H]1CCO[C@@H]1c1ccnn1C [2-K19, N-[(2S,3S)-2-(1-methyl-1H-pyrazol-5-yl)oxolan-3-yl]prop-2-enamide] | 105.135 |
| CC(Cl)C(=O)N1CCOCC(n2cccn2)C1 (stereo not drawn) [6-H22, 2-chloro-1-[6-(1H-pyrazol-1-yl)-1,4-oxazepan-4-yl]propan-1-one] | 103.463 |
| C=CC(=O)NCc1nc2c(s1)CCCC2 [1-G18, N-[(4,5,6,7-tetrahydro-1,3-benzothiazol-2-yl)methyl]prop-2-enamide] | 119.56 |
| Cc1ccc(CN(C(=O)CCl)C2CC2)o1 [6-E03, 2-chloro-N-cyclopropyl-N-[(5-methylfuran-2-yl)methyl]acetamide] | 82.9756 |
| C=CC(=O)NCC(=O)Nc1ccc2c[nH]nc2c1 [1-L11, N-{[(2H-indazol-6-yl)carbamoyl]methyl}prop-2-enamide] | 97.4066 |
| CC(Cl)C(=O)Nc1cccc(-c2ncc3n2CCCC3)c1 (stereo not drawn) [5-F19, 2-chloro-N-(3-{5H,6H,7H,8H-imidazo[1,5-a]pyridin-3-yl}phenyl)propanamide] | 100.911 |
| CC(NC(=O)CCl)c1cc(F)ccc1N(C)C (stereo not drawn) [5-L11, 2-chloro-N-{1-[2-(dimethylamino)-5-fluorophenyl]ethyl}acetamide] | 109.29 |
| C=CC(=O)NC1CCC(c2nc(-c3ccccc3)n[nH]2)CC1 (stereo not drawn) [1-P05, N-[4-(3-phenyl-1H-1,2,4-triazol-5-yl)cyclohexyl]prop-2-enamide] | 81.9341 |
| Cc1cc(C(=O)CCl)c(C)n1-c1ccccc1 [10-L20, 2-chloro-1-(2,5-dimethyl-1-phenyl-1H-pyrrol-3-yl)ethan-1-one] | 127.188 |
| Cc1cc(C(=O)CCl)c(C)n1CCc1cccs1 [10-F16, 2-chloro-1-{2,5-dimethyl-1-[2-(thiophen-2-yl)ethyl]-1H-pyrrol-3-yl}ethan-1-one] | 20.3125 |
| N#CC(=Cc1cccnc1)C(=O)Nc1cccc2ccccc12 [8-L17, 2-cyano-N-(naphthalen-1-yl)-3-(pyridin-3-yl)prop-2-enamide] | 142.407 |
| N#CC(=Cc1csc(C2CC2)n1)C(=O)Nc1ccccc1C(=O)O [9-C16, 2-[2-cyano-3-(2-cyclopropyl-1,3-thiazol-4-yl)prop-2-enamido]benzoic acid] | 75.8052 |
| Cc1ccc(C=C(C#N)C(=O)NC2CCCC2)cc1C [8-E12, 2-cyano-N-cyclopentyl-3-(3,4-dimethylphenyl)prop-2-enamide] | 100.581 |

| Compound | % of control remaining [%] |
| --- | --- |
| C=CC(=O)NC1CN(S(=O)(=O)c2ccc3c(c2)OCCO3)C1 [2-E11, N-[1-(2,3-dihydro-1,4-benzodioxine-6-sulfonyl)azetidin-3-yl]prop-2-enamide] | 96.4317 |
| C=CC(=O)NC1(c2ncon2)CC1 [1-A05, N-[1-(1,2,4-oxadiazol-3-yl)cyclopropyl]prop-2-enamide] | 98.1099 |
| CCn1nc(C)c(C(=O)CCl)n1 [10-P08, 2-chloro-1-(2-ethyl-5-methyl-2H-1,2,3-triazol-4-yl)ethan-1-one] | 110.625 |
| COC(=O)C1(NC(=O)CCl)CC1 [6-I06, methyl 1-(2-chloroacetamido)cyclopropane-1-carboxylate] | 95.9512 |
| C=CC(=O)N(C)Cc1noc(C2CC2)n1 [2-N17, N-[(5-cyclopropyl-1,2,4-oxadiazol-3-yl)methyl]-N-methylprop-2-enamide] | 123.586 |
| C=CC(=O)Nc1ccc(C(C)Sc2ccccc2)cc1 (stereo not drawn) [1-C21, N-{4-[1-(phenylsulfanyl)ethyl]phenyl}prop-2-enamide] | 128.703 |
| O=C(CCl)N1CC2CCC(C1)O2 [6-M20, 2-chloro-1-{8-oxa-3-azabicyclo[3.2.1]octan-3-yl}ethan-1-one] | 96.2927 |
| C=CC(=O)N(C)CC(=O)N1CCC2(CC1)CC2c1nnc(C(C)C)o1 (stereo not drawn) [2-N22, N-methyl-N-(2-oxo-2-{1-[5-(propan-2-yl)-1,3,4-oxadiazol-2-yl]-6-azaspiro[2.5]octan-6-yl}ethyl)prop-2-enamide] | 98.8686 |
| C=CC(=O)NC(C)c1ccc(-n2ccnn2)cc1 (stereo not drawn) [3-B13, N-{1-[4-(1H-1,2,3-triazol-1-yl)phenyl]ethyl}prop-2-enamide] | 131.998 |
| C=CC(=O)Nc1cccc(C(=O)C(F)F)c1 [1-G14, N-[3-(2,2-difluoroacetyl)phenyl]prop-2-enamide] | 107.253 |
| COc1ccc(Cl)c2c1CCCC2N(C)C(=O)C(C)Cl (stereo not drawn) [7-P09, 2-chloro-N-(8-chloro-5-methoxy-1,2,3,4-tetrahydronaphthalen-1-yl)-N-methylpropanamide] | 109.576 |
| CC(Cl)C(=O)Nc1ccc2c(c1)ncn2-c1ccccc1 (stereo not drawn) [6-N13, 2-chloro-N-(1-phenyl-1H-1,3-benzodiazol-5-yl)propanamide] | 87.7561 |
| O=C(CCl)N1CCN(C2CCCN(C3CCOCC3)C2=O)CC1 (stereo not drawn) [5-E18, 3-[4-(2-chloroacetyl)piperazin-1-yl]-1-(oxan-4-yl)piperidin-2-one] | 98.3607 |
| CCn1cc(C2CN(C(=O)C(C)Cl)CCO2)cn1 (stereo not drawn) [7-G08, 2-chloro-1-[2-(1-ethyl-1H-pyrazol-4-yl)morpholin-4-yl]propan-1-one] | 84.7724 |
| C=CC(=O)Nc1cnn(C2CCCC2)c1 [3-O21, N-(1-cyclopentyl-1H-pyrazol-4-yl)prop-2-enamide] | 87.4184 |
| CCCn1c(C)cc(C=C(C#N)C(=O)Nc2ccccc2)c1C [8-H05, 2-cyano-3-(2,5-dimethyl-1-propyl-1H-pyrrol-3-yl)-N-phenylprop-2-enamide] | 108.216 |
| N#CC(=Cc1cccc(F)c1F)C(N)=O [9-A03, 2-cyano-3-(2,3-difluorophenyl)prop-2-enamide] | 107.865 |
| CC(Cl)C(=O)NC(CC1CCCCC1)c1ncccn1 (stereo not drawn) [7-H13, 2-chloro-N-[2-cyclohexyl-1-(pyrimidin-2-yl)ethyl]propanamide] | 99.2151 |
| C=CC(=O)N1CCC(C(=O)N[C@H]2CCO[C@H](c3ccccn3)C2)CC1 (racemic) [2-G15, rac-1-(prop-2-enoyl)-N-[(2R,4R)-2-(pyridin-2-yl)oxan-4-yl]piperidine-4-carboxamide] | 110.357 |
| COc1ccc(CN2CCN(C(=O)CCl)CC2)cc1.Cl [5-A15, 2-chloro-1-{4-[(4-methoxyphenyl)methyl]piperazin-1-yl}ethan-1-one hydrochloride] | 98.725 |
| Cn1ccnc1C(=O)CCl [10-C15, 2-chloro-1-(1-methyl-1H-imidazol-2-yl)ethan-1-one] | 93.75 |
| C=CC(=O)NC(c1ccc(F)cc1)c1nccn1C (stereo not drawn) [2-N09, N-[(4-fluorophenyl)(1-methyl-1H-imidazol-2-yl)methyl]prop-2-enamide] | 98.1723 |
